# Results: PubChem BioAssay AID1671194 (National Center for Advancing Translational Sciences (NCATS), 2021)
# The whole screen tested about 140,000 compounds, of which about 240 (0.17%) were called active. Inconclusive means that the source gave no clear call. Such entries were picked first, then a sample of the others. Calls follow the shape of the dose curve; as a rule, active = well fitted inhibition curve with a large enough effect; inconclusive = small, poorly fitted or top-dose-only effect; inactive = no such curve, though single readings can be large or run the other way. A potency beside an inconclusive call is a rough fit, not a confirmed value.
# Test: Primary qHTS assay for inhibitors of alpha-synuclein gene (SNCA) expression; also: nearly all actives have a fitted effect of over 45% in size;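 as to activity change, negative = inhibition: plate controls were DMSO cells for no effect and cell-free wells for full effect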
# Details: HEK-293 SNCA-luciferase knock-in, luminescence, 24 h; activity change, negative = inhibition: at 57.2 µM (top of the series) unless noted
# Potency is read from the fitted curve at half-maximal effect; tags tell the direction and shape of the fitted curve.
Compound,"activity change, negative = inhibition",Potency
CCN(CC)C(=O)N1CC(Oc2cccc(-c3nc(C)no3)c2)C1,inactive: -3.04%,–
CCCc1noc(-c2cccn3c(CNC(=O)c4ccccc4Cl)nnc23)n1,–,"inconclusive: 5.01 µM [inhibitor, full curve, poor fit]"
CCc1nc2c(c(-c3ccc(Cl)cc3)n1)CCN(Cc1ccccc1)CC2,inactive: 21.6%,–
Cc1sc2c(c1C)c(=O)n(Cc1ccccc1)c(=O)n2CC(=O)N(C)c1ccccc1,inactive: -21.6%,–
CCc1nc2c(c(-c3ccc(Cl)cc3)n1)CN(C(=O)Nc1ccc(Cl)cc1)CC2,–,"inconclusive: 7.08 µM [inhibitor, partial curve, poor fit]"
COCCOc1ccc2c(n1)CCN(C(=O)Cc1ccccc1C)C2,–,"inconclusive: 10 µM [inhibitor, partial curve, poor fit]"
O=C(CSc1nc(-c2ccccc2)no1)N1CCN(c2ccccc2)CC1,–,"inconclusive: 39.8 µM [inhibitor, single point]"
CCOC(=O)CSc1nc(-c2ccc(F)cc2)cc(C(F)(F)F)c1C#N,inactive: -10.7%,–
CC(C)C(=O)N1CCC(N2C(=O)C3(CCCC3)C2c2ccccc2)CC1 (stereo not drawn),–,"inconclusive: 28.2 µM [inhibitor, single point]"
CCc1ccccc1N1CC(c2nc3ccccc3n2CCOc2ccc(Cl)c(C)c2)CC1=O (stereo not drawn),–,"inconclusive: 22.4 µM [inhibitor, partial curve, poor fit]"
O=c1[nH]nc2n1CCN(S(=O)(=O)c1ccc(Cl)s1)CC2,–,"inconclusive: 5.62 µM [inhibitor, full curve, poor fit]"
COc1ccc(C2=NS(=O)(=O)N(C)C(C(=O)Nc3ccc(OC(F)(F)F)cc3)=C2)cc1,–,"inconclusive: 28.2 µM [inhibitor, single point]"
COC[C@@H]1[C@H](NC(=O)c2cc(N3CCCCC3)ccc2Cl)[C@@H]2CCO[C@H]12,–,"inconclusive: 39.8 µM [inhibitor, single point]"
CC(=O)Nc1cccc(-c2cc(C3=CCOCC3)c3cncn3c2)c1,inactive: 17.9% [at 87.6 µM],–
COc1cccc(-c2cn3cc(C(=O)NCCCc4ccccc4)nc3s2)c1,–,"inconclusive: 39.8 µM [inhibitor, single point]"
COc1ccccc1-c1nc(C(=O)NCc2cccnc2)n2ccncc12,–,inactive
CC(=O)c1cccc(NC(=O)c2ccc(Cl)c(S(=O)(=O)N3CCOCC3)c2)c1,–,"inconclusive: 2.51 µM [inhibitor, partial curve, poor fit]"
CC(=O)c1c(C)n(-c2ccc(Cl)cc2)c2ccc(OC(=O)COc3ccccc3)cc12,–,"inconclusive: 7.94 µM [inhibitor, partial curve, poor fit]"
CC(C)(C)C1CCc2c(sc(NC(=O)c3ccccc3F)c2C(=O)NCc2ccco2)C1 (stereo not drawn),–,"inconclusive: 3.55 µM [inhibitor, partial curve, poor fit]"
CCCCCNc1ncnc2c1CN(c1ccccc1F)C(=O)CN2C,inactive: -2.61%,–
O=C1NCc2ccccc2CC12CCCCN2Cc1ccccc1 (stereo not drawn),–,"inconclusive: 4.47 µM [inhibitor, full curve]"
O=C(Cc1ccccc1Cl)N1CCCN(c2cc(-c3ccccc3)[nH]n2)CC1,–,"inconclusive: 8.91 µM [inhibitor, single point]"

Compound,"activity change, negative = inhibition",Potency
CNC(c1ccccc1)c1ccccc1,inactive: 17.3% [at 87.6 µM],–
Cc1ccc(-c2nc3n(n2)C(=O)CC(c2ccc(C)cc2)S3)cc1 (stereo not drawn),inactive: 4.68%,–
C[S+](=O)([O-])Nc1cccc(Nc2cnc3ccc(-c4ccccc4)nn23)c1,–,"inconclusive: 7.08 µM [inhibitor, full curve]"
O=C(c1ccc2cccc(F)c2n1)N1CCOc2ccc(Cl)cc2C1,inactive: 1.95%,–
CCC(CC)NC(=O)[C@H]1CCC[C@H]1NC(=O)c1ccc(OC)nc1,–,"inconclusive: 10 µM [inhibitor, partial curve, poor fit]"
N#Cc1cccc(CN2CCCC(c3[nH]ccc3C(N)=O)C2)c1 (stereo not drawn),–,"inconclusive: 1.58 µM [inhibitor, partial curve, poor fit]"
CCCNC(=O)NC[C@@H]1C=C(C)[C@H](Cc2nc3ccc(OC)cc3[nH]2)C[C@H]1C(C)C,–,"inconclusive: 56.2 µM [inhibitor, single point]"
Cc1ncccc1Oc1ncnc(N2CCC3(CC(=O)NC3=O)C2)c1C (stereo not drawn),inactive: 0%,–
Cc1ccc(S(=O)(=O)N2CCCc3cc(NS(=O)(=O)c4ccccc4)ccc32)cc1,–,"inconclusive: 39.8 µM [inhibitor, single point]"
O=C(NCCCn1cccn1)c1ccccc1OC1CCN(Cc2ccccn2)CC1,inactive: 30.6%,–
CN(Cc1ccccc1)Cc1cc(C[C@@H]2C[C@H](NC(=O)C3CCC3)C2(C)C)no1,–,"inconclusive: 56.2 µM [inhibitor, single point]"
CCOc1ccc(CN2C(=O)c3ccccc3Sc3ccc(C(=O)NCCCN4CCOCC4)cc32)cc1,–,"inconclusive: 3.98 µM [inhibitor, single point]"
O=C(c1ccccc1F)N1CCN(c2nccc(Nc3ccccc3Cl)n2)CC1,inactive: -22.7%,–
O=C(NCc1cccs1)C1CN(c2cccc(Cl)c2)C(=O)N1 (stereo not drawn),–,"inconclusive: 39.8 µM [inhibitor, single point]"
CC(C)NC(=O)NC[C@H]1OC[C@@H](NCc2cnc[nH]2)[C@@H]1O,–,"inconclusive: 3.16 µM [inhibitor, partial curve, poor fit]"
Cc1ccc2[nH]c(=O)c3cc(C(=O)NCc4cccc(Cl)c4)sc3c2c1,–,"inconclusive: 39.8 µM [inhibitor, single point]"
CCC(=O)NC1CCCN(c2ccnc3ccnn23)C1 (stereo not drawn),inactive: 2.57% [at 87.6 µM],–
O=C(Cc1cccc(F)c1)N1CCC2(CC1)NCCc1c2[nH]c2ccccc12,–,"inconclusive: 31.6 µM [inhibitor, partial curve, poor fit]"
CCn1nccc1C(=O)N1CCc2nc3cc(-c4ccccc4Cl)[nH]n3c(=O)c2C1,–,"inconclusive: 39.8 µM [inhibitor, partial curve, poor fit]"
CCC(NC(=O)c1cc(OC)ccc1OC1CCN(C(C)=O)CC1)c1ccncc1 (stereo not drawn),inactive: 9.57%,–
O=C(CN1C(=O)COc2ccc(C(=O)COc3ccc(Cl)cc3F)cc21)NC1CCCCC1,–,"inconclusive: 2.82 µM [inhibitor, full curve]"
